Whole data set: some 81,000 sequences, median “one-hybrid fitness for binding NBS DNA” near -0.1, cut for the highest 2% near 0.36. Some of the results follow.
B1: Caulobacter ParB omega fusion; a variant is named by its letters at X, in order, B8GW30 (parent)
chain: MESVVVGEPGMSEGRRGLGRGLSALLGEVDAAPAQAPGEQLGGSREAPIEILQRNPDQPRRTFREEDLEDLSNSIREKGVLQPILVRPSPDTAGEYQIVAGERAWRAAQRAGLKTVPIMVRELDDLAVLEIGIIENVQRADLNVLEEALSYKVLMEKFERTQENIAQTIGKSXSHVANXMRLLXLPDEVQSYLVSGELTAXHARAIAAAADPVALAKQIIEGGLSVRETEALARKAPNLSAGKSKGGRPPRVKDTDTQALESDLSSVLGLDVSIDHRGSTGTLTITYATLEQLDDLCNRLTRGI

Variants of: B1
Assay: one-hybrid fitness for binding NBS DNA (the Noc-binding site; scaled: cognate 1, non-cognate 0); higher = stronger binding
Conditions: with NBS DNA site
In short: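 Values were rescaled so that cognate is 1 and non-cognate is 0. Each is a fitness, the log change in a variant's read ratio to wild type from Illumina reads of plasmids before and after selection, with three replicate libraries pooled and variants under 10 reads dropped. Selection of the Caulobacter ParB libraries, four specificity codons randomised, used E. coli USO with a HIS3 reporter, site 19 bp from the promoter, on M9-minus-histidine with 0.1 mM IPTG and 5 mM 3-AT for 48 hours at 37°C.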

one-hybrid fitness for binding NBS DNA, 0.248:
RFSR

one-hybrid fitness for binding NBS DNA, 0.539:
KRMT

one-hybrid fitness for binding NBS DNA, 0.437:
QIGR

one-hybrid fitness for binding NBS DNA, ≤ 0.2:
QGPF
NQFL
HVLY
RPAS
IPEV
DDRT
HNMT
LEYV
GLDC
ISHS
RCQW
SYDM
RAHM
PSEQ
QTWG
LVVK
LNEW
VPKV
PNPI
DCST
ENMW
QVLV
MLKF
AAEF
PWQI
WLGF
MVIG
YKRA
RIVN
SSTC
GRSI
AHMS
HVES
APMG
ASMM
PPDT
KPVY
IPPV
EESL
QGRP
ETCV
KAMY
IGRF
VPLC
NYKY
QCHK
KLSE
DHTL
GLYY
LKTK
WYRC
AMRA
RAKW
WMDF
AIYG
KMKY
KLQC
WSKS
PAVC
TTQP
PRPC
KSDI
HVAS
RRPE
GLWG
RTGY
NMIR
VDQG
KSYG
TCEN
YFPT
QLPH
CSGS
RRVD
QEHS
QHFM
SVDT
IGSS
PATF
QNLT
SILS
RMSW
GRWV
IPLW
RHTG
YFHR
GISK
RSDD
FANN
FAKW
QMEH
HNYC
HVFG
PISQ
REHL
PVIR
YNGT
RWYA
AYFT
AARK
LNIS
QNYW
NMKF
EPFS
GRTN
DQSC
LTSI
NAQA
IFAG
HSGF
PQKF
HKTV
LSTV
EHNT
EIKS
TGLI
GRRA
LTFG
GANS
NKPG
FLVR
YVWR
HLQG
TMRL
YETI
MHPM
DCDR
MEWS
VHKK
TFSM
PGRE
FRPG
GFHS
PHHN
FRGT
MSAG
VTFA
SVGG
WLHR
CVFI
GMFS
EWTA
NRLG
AGGT
HMEG
PYFR
PTHY
IGQS
RWET
QGVC
CCEL
REDF
IRVI
KPDF
TEVR
THGD
HQRP
WRRG
GQLL
ENCS
HWMR
NGVM
WLQC
ITIN
RVHM
ARSQ
LGDT
SERV
TNRY
AECV
RNLQ
SWEP
PGKP
LADG
DTRL
GGPI
VRSA
PGPC
ASAA
SPCP
TMVP
FNAY
PTGH
VLTS
ANPV
IRWR
GIQS
YLDS
GFQQ
LKRN
KVSM
HWVK
SRWP
EWTF
VCPT
QFIF
ADRY
RQRK
KNWL
PEIG
RHMC
MTDL
CWVS
YEAW
ECGL
MPEC
DPRW
TRCA
SAPP
EGKS
GPTL
DAKC
HYPS
SSPL
SFHK
TIVC
HIMS
MPTP
EWVS
EAAY
SNKH
WSGR
FEYC
YPSL
CLSI
MYMC
DWCS
EYNR
GMQS
AMAV
NQAD
HQPL
CSAS
DFKD
SRAT
THCT
PLVM
SHTM
NDKA
YKQM
LEKY
KYLF
REDA
VVIR
NKAN
WDSL
DGIV
QWMC
LRRH
GPYL
TRPV
WNNS
LRED
IKIT
PLCN
VGPG
VQQR
LGQG
GRCA
DFLG
WDDG
DITV
ASVE
TGLV
RTAV
HCKF
KCIC
MTLD
YPII
ALAD
CGDR
FPKC
MIGS
TKKS
PACC
HRMY
LCAD
NFQS
ERTY
SKLI
SQYC
MKLE
CHEA
LCPQ
FRTV
CVCC
AILR
GVRG
HTQR
YKTQ

one-hybrid fitness for binding NBS DNA, 0.28:
FCKT

one-hybrid fitness for binding NBS DNA, 0.647:
RRKM

one-hybrid fitness for binding NBS DNA, 0.227:
QRDC

one-hybrid fitness for binding NBS DNA, 0.25:
QVSS

one-hybrid fitness for binding NBS DNA, 0.272:
KKSR

one-hybrid fitness for binding NBS DNA, 0.436:
QQSS

one-hybrid fitness for binding NBS DNA, 0.221:
RQRN

one-hybrid fitness for binding NBS DNA, 0.342:
QATS

one-hybrid fitness for binding NBS DNA, 0.327:
CGKR

one-hybrid fitness for binding NBS DNA, 0.568:
QMTR

one-hybrid fitness for binding NBS DNA, 0.317:
RRLY

one-hybrid fitness for binding NBS DNA, 0.245:
KRRQ

one-hybrid fitness for binding NBS DNA, 0.273:
ICKR

From a collection of fitness landscapes (doi:10.1016/j.celrep.2020.107928)
